Test results from the antibiotic and cytotoxicity screens of Wong et al. (2023).
The list shows a part of the results.

Assays:
[1] = tested on: HSkMC (human skeletal muscle cells); assay: cytotoxicity call (relative viability < 0.9); details: 10 µM
[2] = tested on: HepG2; assay: cytotoxicity call (relative viability < 0.9); details: 10 µM
[3] = tested on: S. aureus RN4220; assay: growth inhibition call (relative growth <= 0.2); details: 50 µM

Row | Structure (SMILES) | cytotoxicity call [1] | cytotoxicity call [2] | growth inhibition call [3]
1 | COC[C@@H]1CNN1C(=O)c1cc(C)oc1C | inactive | inactive | inactive
2 | C[C@@H]1CN([C@@H](C)CO)C(=O)c2cc(NC(=O)c3ccccc3)ccc2O[C@@H](C)CCCCO[C@@H]1CN(C)Cc1ccc(C(F)(F)F)cc1 | inactive | inactive | inactive
3 | C[C@@H]1CN([C@@H](C)CO)C(=O)c2cc(NC(=O)c3ccccc3)ccc2O[C@@H](C)CCCCO[C@@H]1CN(C)C(=O)Nc1cccc2ccccc12 | inactive | inactive | inactive
4 | C[C@@H]1CN([C@H](C)CO)C(=O)c2cc(NS(=O)(=O)c3cccs3)ccc2O[C@@H]1CN(C)S(=O)(=O)c1ccccc1 | inactive | inactive | inactive
5 | C[C@H]1CCCCO[C@@H](CN(C)C(=O)Nc2ccc(F)cc2)[C@@H](C)CN([C@@H](C)CO)C(=O)c2cc(NS(=O)(=O)c3ccc(Cl)cc3)ccc2O1 | inactive | inactive | inactive
6 | CC(CCC(=O)O)C1CCC2C3CCC4CC(O)CCC4(C)C3CC(O)C12C (stereo not drawn) | inactive | inactive | inactive
7 | C[C@@H]1CCCCO[C@@H](CN(C)C(=O)Nc2cccc3ccccc23)[C@@H](C)CN([C@H](C)CO)C(=O)c2cc(NS(C)(=O)=O)ccc2O1 | inactive | inactive | inactive
8 | Cc1ccc(S(=O)(=O)N(C)C[C@@H]2Oc3ccc(NS(=O)(=O)c4cccs4)cc3CC(=O)N([C@H](C)CO)C[C@H]2C)cc1 | inactive | inactive | inactive
9 | O=C(C[C@@H]1C=C[C@@H](NC(=O)C2CCC2)[C@H](CO)O1)NCCCN1CCOCC1 | inactive | inactive | inactive
10 | Cc1ccc(S(=O)(=O)N(C)C[C@@H]2Oc3ccc(NS(C)(=O)=O)cc3CC(=O)N([C@H](C)CO)C[C@H]2C)cc1 | inactive | inactive | inactive
11 | COc1cccc(S(=O)(=O)N2C[C@@H](O)COC[C@@H]3O[C@@H](CC(=O)N4CCN(c5ccccc5)CC4)CC[C@H]32)c1 | inactive | inactive | inactive
12 | C[C@H](CO)N1C[C@H](C)[C@H](CN(C)Cc2ccc(Oc3ccccc3)cc2)OCc2ccccc2-c2c(n(C)c3ccccc23)C1=O | inactive | inactive | inactive
13 | C[C@@H]1CN([C@@H](C)CO)C(=O)c2cc(NC(=O)c3ccncc3)ccc2O[C@@H](C)CCCCO[C@@H]1CN(C)C(=O)Nc1ccccc1 | inactive | inactive | inactive
14 | CC1(C)OC(=O)C2(C(=O)O1)[C@@H](c1ccc(-c3cccc(-c4ccc(C(=O)O)cc4)c3)cc1)CC(=O)C[C@H]2c1ccccc1 | inactive | inactive | inactive
15 | C[C@@H]1CN([C@@H](C)CO)C(=O)c2cc(NC(=O)CCCCCC(=O)Nc3ccccc3N)ccc2O[C@@H]1CN(C)Cc1ccc(C(F)(F)F)cc1 | inactive | inactive | inactive
16 | C[C@@H]1CCCCO[C@@H](CN(C)Cc2ccc(C(F)(F)F)cc2)[C@H](C)CN([C@@H](C)CO)C(=O)c2cc(NC(=O)CCC(F)(F)F)ccc2O1 | inactive | active | inactive
17 | CCCNC(=O)Nc1ccc2c(c1)OC[C@H](C)N(C(=O)C1CCOCC1)C[C@H](C)[C@H](OC)CN(C)C2=O | inactive | inactive | inactive
18 | C[C@@H]1CN([C@H](C)CO)C(=O)c2cc(NC(=O)c3ccccc3)ccc2O[C@@H](C)CCCCO[C@@H]1CN(C)C(=O)c1ccccc1 | inactive | inactive | inactive
19 | O=C(O)CCSC[C@@H]1O[C@H]2O[C@@H]3[C@@H](O)[C@H](O)[C@H](O[C@@H]4[C@@H](O)[C@H](O)[C@H](O[C@@H]5[C@@H](O)[C@H](O)[C@H](O[C@@H]6[C@@H](O)[C@H](O)[C@H](O[C@@H]7[C@@H](O)[C@H](O)[C@H](O[C@@H]8[C@@H](O)[C@H](O)[C@H](O[C@@H]9[C@@H](O)[C@H](O)[C@H](O[C@@H]1[C@@H](O)[C@@H]2O)O[C@H]9CSCCC(=O)O)O[C@H]8CSCCC(=O)O)O[C@H]7CSCCC(=O)O)O[C@H]6CSCCC(=O)O)O[C@H]5CSCCC(=O)O)O[C@H]4CSCCC(=O)O)O[C@H]3CSCCC(=O)O | inactive | inactive | inactive
20 | COc1ccc(NC(=O)N(C)C[C@H]2OCCCC[C@H](C)Oc3ccc(NC(=O)Nc4ccc(C(F)(F)F)cc4)cc3C(=O)N([C@H](C)CO)C[C@@H]2C)cc1 | inactive | inactive | inactive
21 | Cc1noc(C)c1NC(=O)Nc1ccc2c(c1)C(=O)N([C@@H](C)CO)C[C@@H](C)[C@@H](CN(C)C(=O)Nc1ccccc1)OCCCC[C@@H](C)O2 | inactive | inactive | inactive
